Laboratory results published in the RNAGym collection of RNA variant scans (doi:10.1093/nar/gkz1192).
Read counts are not given, so values of variants with three or more changes are uncertain.

B1: CPEB3 Ribozyme (parent)
chain: UAACAGGGGGCCACAGCAGAAGCGUUCACGUCGCAGCCCCUGUCAGAUUCUGGUGAAUCUGCGAAUUCUGCUGUAUAUCUC

Variants of: B1
Experiment: self-cleavage, relative activity (ratio to wild type); higher = more cleavage; in vitro, sequencing
Outline: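 Relative activity compares each variant's cleaved/total read fraction with that of the unmutated ribozyme. To get these fractions, barcoded CPEB3 ribozyme libraries from rounds of error-prone PCR were transcribed with T7 RNA polymerase for 5 hours at 37°C and then given 15 min of DNase I treatment before EDTA was added. The RNAs were reverse transcribed with template switching and sequenced on Illumina, and DNA sequencing linked barcodes to variants. A minimum of 5 reads applied, and three batches were averaged.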
In the case of A20U U26C U31A, the self-cleavage is reported as 0.14.
A20U U26C U31C U51A U80A gave a self-cleavage of 0.27.
A20U U26C U48C U54C showed a self-cleavage of 0.59.
A20U U26G G63A C68A U78C showed a self-cleavage of 0.02.
In the case of A20U U26G U51A U60C U69A G73A, the self-cleavage is reported as 0.13.
A20U U31A A64G U78C U80C showed a self-cleavage of 0.05.
A20U U31A C32U C39G showed a self-cleavage of 0.34.
In the case of A20U U31A C50A, the self-cleavage is reported as 0.18.
For A20U U31A U41A A45U U51A A65G A77C, the self-cleavage was 0.05.
With A20U U31C A35U U41A the self-cleavage was 0.15.
In the case of A20U U31C A47G U48C, the self-cleavage is reported as 0.1.
For A20U U31C A64U A65G U74C, the self-cleavage was 0.15.
In the case of A20U U31C C32U U60C, the self-cleavage is reported as 0.05.
A20U U31C U41C A64G U72C U80A gave a self-cleavage of 0.09.
Variant A20U U31C U43C A64G U72C has a self-cleavage of 0.15.
For A20U U31C U72A, the self-cleavage was 0.14.
With A20U U31G C32A U51A the self-cleavage was 0.18.
A20U U41A A57G showed a self-cleavage of 0.44.
In the case of A20U U41A U51C A65G, the self-cleavage is reported as 0.1.
A20U U41A U54C showed a self-cleavage of 0.13.
Variant A20U U41A U78A C81U has a self-cleavage of 0.26.
For A20U U41C A45C U72C, the self-cleavage was 0.08.
For A20U U41C G52C, the self-cleavage was 0.3.
A20U U41C G63A A64G A75G showed a self-cleavage of 0.13.
In the case of A20U U41C G63U, the self-cleavage is reported as 0.28.
A20U U41C U48A U74C gave a self-cleavage of 0.07.
Work on A20U U41C U49C U66C U69C yielded a self-cleavage of 0.21.
A20U U41G U54C gave a self-cleavage of 0.12.
For A20U U43A G63U, the self-cleavage was 0.38.
In the case of A20U U43A U49A, the self-cleavage is reported as 0.21.
For A20U U43A U49C A65G, the self-cleavage was 0.06.
A20U U43A U74C A75U showed a self-cleavage of 0.53.
A20U U43A U78C showed a self-cleavage of 0.22.
In the case of A20U U43C A56U, the self-cleavage is reported as 0.17.
A20U U43C A57C showed a self-cleavage of 0.06.
Work on A20U U43C G63U yielded a self-cleavage of 0.33.
For A20U U43C U51A U72C A77G, the self-cleavage was 0.26.
For A20U U43C U60C, the self-cleavage was 0.11.
Variant A20U U43C U67A has a self-cleavage of 0.95.
With A20U U43C U69A U72C the self-cleavage was 0.16.
With A20U U43C U69C the self-cleavage was 0.16.
A20U U48A A56C C62U U69C showed a self-cleavage of 0.09.
In the case of A20U U48C A57G U58A U67C, the self-cleavage is reported as 0.14.
Work on A20U U48C A57G U67C yielded a self-cleavage of 0.1.
For A20U U48C U49A U51A U72G, the self-cleavage was 0.47.
A20U U48C U51A U60A showed a self-cleavage of 0.08.
For A20U U49C A56G A64U, the self-cleavage was 0.3.
Work on A20U U49C A65G U69C yielded a self-cleavage of 0.11.
Variant A20U U49C C71A has a self-cleavage of 0.12.
A20U U49C U67C showed a self-cleavage of 0.14.
A20U U51A A57G showed a self-cleavage of 0.19.
In the case of A20U U51A U76C U80C, the self-cleavage is reported as 0.26.
Work on A20U U51C U54C A75U yielded a self-cleavage of 0.3.
Work on A20U U51C U80C yielded a self-cleavage of 0.55.
Variant A20U U54A U60A G63U has a self-cleavage of 0.25.
Work on A20U U54C A56U U67C yielded a self-cleavage of 0.09.
A20U U54C C71U U72C gave a self-cleavage of 0.14.
With A20U U54C U58A A65G U76A the self-cleavage was 0.03.
Variant A20U U58A A77G has a self-cleavage of 0.11.
In the case of A20U U58C A65G, the self-cleavage is reported as 0.08.
A20U U58G U60A A64G C71A showed a self-cleavage of 0.03.
Variant A20U U60A A64G has a self-cleavage of 0.13.
A20U U60A A77U gave a self-cleavage of 0.15.
For A20U U60C A64C, the self-cleavage was 0.09.
Variant A20U U60C C68U U76C has a self-cleavage of 0.12.
Work on A20U U60C C79G yielded a self-cleavage of 0.1.
A20U U60C U67C showed a self-cleavage of 0.05.
With A20U U67C A77G the self-cleavage was 0.12.
A20U U69A U72C U78C gave a self-cleavage of 0.42.
In the case of A20U U69C U72A, the self-cleavage is reported as 0.29.
Variant A20U U69C U78C has a self-cleavage of 0.12.
With A20U U72C U78C the self-cleavage was 0.26.
A20U U74A U80C gave a self-cleavage of 0.59.
Work on A21C A28C A35G yielded a self-cleavage of 0.22.
With A21C A28C U31A the self-cleavage was 0.07.
For A21C A28G U43C, the self-cleavage was 0.16.
A21C A28U G33U A47U gave a self-cleavage of 0.05.
For A21C A35G A57G, the self-cleavage was 0.12.
A21C A35U U48C gave a self-cleavage of 0.05.
For A21C A45U A56G, the self-cleavage was 0.21.
For A21C A56G U67C, the self-cleavage was 0.07.
For A21C A56G U69A, the self-cleavage was 0.14.
For A21C C37U C59U A65G, the self-cleavage was 0.12.
Variant A21C U25C U31A U58G has a self-cleavage of 0.18.
Variant A21C U25C U69C has a self-cleavage of 0.37.
For A21C U26C A28U U54C A75G, the self-cleavage was 0.04.
Variant A21C U26C G33U A47U has a self-cleavage of 0.05.
A21C U31C A35U U80C showed a self-cleavage of 0.24.
In the case of A21C U41A U48C, the self-cleavage is reported as 0.1.
A21C U41C U54C U67C showed a self-cleavage of 0.15.
With A21C U43C U48A A77U the self-cleavage was 0.16.
With A21C U48C U66C the self-cleavage was 0.11.
A21C U49C U72C gave a self-cleavage of 0.12.
Variant A21C U51A U78A has a self-cleavage of 0.16.
In the case of A21C U54C U66A U69C U80A, the self-cleavage is reported as 0.12.
For A21C U72A C81G, the self-cleavage was 0.12.
A21G A28G A35G U41A A65G A75U showed a self-cleavage of 0.28.
A21G A28G A45G A77U showed a self-cleavage of 0.28.
A21G A28G A45U gave a self-cleavage of 0.18.
Variant A21G A28G A45U U51A has a self-cleavage of 0.25.
Variant A21G A28G A56U U72A has a self-cleavage of 0.08.
A21G A28G A64U showed a self-cleavage of 0.36.
A21G A28G A65G gave a self-cleavage of 0.12.
With A21G A28G C62U the self-cleavage was 0.08.
For A21G A28G G30A, the self-cleavage was 0.43.
For A21G A28G G30A A75U, the self-cleavage was 0.05.
A21G A28G U31A A47G U60C U69C A77C showed a self-cleavage of 0.
A21G A28G U41C A45G U49C U72C gave a self-cleavage of 0.2.
Work on A21G A28G U41C U69A U72C yielded a self-cleavage of 0.06.
In the case of A21G A28G U41C U69C U80A, the self-cleavage is reported as 0.12.
Variant A21G A28G U43C U69G U76A has a self-cleavage of 0.18.
A21G A28G U49G A65G U67C C71U U74A showed a self-cleavage of 0.02.
A21G A28G U51A U78A gave a self-cleavage of 0.29.
In the case of A21G A28G U51C U80A, the self-cleavage is reported as 0.36.
With A21G A28G U54G U60A the self-cleavage was 0.18.
A21G A28G U58A A75G showed a self-cleavage of 0.13.
Variant A21G A28G U67C U72G has a self-cleavage of 0.08.
In the case of A21G A28G U69C, the self-cleavage is reported as 0.11.
Work on A21G A28U A35G U49C U54C yielded a self-cleavage of 0.24.
Variant A21G A28U A45C U54C U60C has a self-cleavage of 0.06.
A21G A28U A45G showed a self-cleavage of 0.12.
For A21G A28U A47G, the self-cleavage was 0.36.
For A21G A28U C68A U80C, the self-cleavage was 0.17.
For A21G A28U G30A U48C, the self-cleavage was 0.06.
Work on A21G A28U G30U U49C U54G U58A U66C yielded a self-cleavage of 0.04.
A21G A28U G33U U67A showed a self-cleavage of 0.03.
Work on A21G A28U G61A yielded a self-cleavage of 0.3.
Variant A21G A28U U31A U48C has a self-cleavage of 0.12.
For A21G A28U U41A U49A, the self-cleavage was 0.24.
In the case of A21G A28U U41C A64G U78C U80C, the self-cleavage is reported as 0.08.
With A21G A28U U43C A56G G63A A65G the self-cleavage was 0.09.
A21G A28U U51A U69C showed a self-cleavage of 0.18.
A21G A28U U60A U69A showed a self-cleavage of 0.12.
For A21G A28U U67C U78C, the self-cleavage was 0.2.
A21G A28U U72C showed a self-cleavage of 0.36.
For A21G A35C U67G U69A, the self-cleavage was 0.11.
In the case of A21G A35G A45G U74C U80A, the self-cleavage is reported as 1.23.
A21G A35G A57G U67A A75G gave a self-cleavage of 0.62.
A21G A35G A57U gave a self-cleavage of 0.76.
A21G A35G A64G gave a self-cleavage of 1.02.
Variant A21G A35G A65G has a self-cleavage of 0.6.
Work on A21G A35G A77U yielded a self-cleavage of 1.26.
A21G A35G C37A showed a self-cleavage of 0.64.
In the case of A21G A35G C40A, the self-cleavage is reported as 0.34.
A21G A35G U41A C81U gave a self-cleavage of 0.16.
For A21G A35G U41A G53U U69C, the self-cleavage was 0.09.
A21G A35G U41C U48C U74A gave a self-cleavage of 1.12.
For A21G A35G U41C U67C, the self-cleavage was 0.17.
A21G A35G U41C U67C A77G showed a self-cleavage of 0.16.
A21G A35G U43A U48C U74G gave a self-cleavage of 0.67.
With A21G A35G U43C the self-cleavage was 0.89.
Variant A21G A35G U43C A47G A56G U66C A77U has a self-cleavage of 0.9.
With A21G A35G U43C G52U the self-cleavage was 1.03.
Variant A21G A35G U49A U78C has a self-cleavage of 1.
In the case of A21G A35G U54C, the self-cleavage is reported as 1.34.
A21G A35G U58C gave a self-cleavage of 0.97.
With A21G A35G U66C G70A the self-cleavage was 1.08.
In the case of A21G A35G U69A, the self-cleavage is reported as 0.52.
A21G A35G U69A A77U gave a self-cleavage of 1.01.
With A21G A35G U76C the self-cleavage was 1.07.
In the case of A21G A35U A45G A56C, the self-cleavage is reported as 0.05.
With A21G A35U C59A U78A the self-cleavage was 0.06.
A21G A35U C62G U76C gave a self-cleavage of 0.14.
Work on A21G A35U G61A yielded a self-cleavage of 0.13.
Work on A21G A35U G63U U66C U80G yielded a self-cleavage of 0.55.
With A21G A35U U41C A64G U69A the self-cleavage was 0.13.
A21G A35U U41G U51A U60G gave a self-cleavage of 0.05.
